Results on five substances are retold here after paper PMC8408166.

Sequences of proteins named here, by UniProt entry; tags and fusion partners are left off. A change or cut given only in a name is not applied to a line headed by its entry. A line that says so, or that is headed by a name, gives the form on record, which may keep a tag or linker. Residues count along the entry.
UniProt O95863: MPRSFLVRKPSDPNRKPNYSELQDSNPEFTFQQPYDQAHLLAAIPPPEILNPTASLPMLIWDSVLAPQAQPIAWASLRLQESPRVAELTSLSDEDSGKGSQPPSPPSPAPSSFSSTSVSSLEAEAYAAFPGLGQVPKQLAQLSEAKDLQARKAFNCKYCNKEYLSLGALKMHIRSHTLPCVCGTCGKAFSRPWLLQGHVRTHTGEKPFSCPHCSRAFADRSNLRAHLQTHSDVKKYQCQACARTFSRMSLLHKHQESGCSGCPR
UniProt O94776: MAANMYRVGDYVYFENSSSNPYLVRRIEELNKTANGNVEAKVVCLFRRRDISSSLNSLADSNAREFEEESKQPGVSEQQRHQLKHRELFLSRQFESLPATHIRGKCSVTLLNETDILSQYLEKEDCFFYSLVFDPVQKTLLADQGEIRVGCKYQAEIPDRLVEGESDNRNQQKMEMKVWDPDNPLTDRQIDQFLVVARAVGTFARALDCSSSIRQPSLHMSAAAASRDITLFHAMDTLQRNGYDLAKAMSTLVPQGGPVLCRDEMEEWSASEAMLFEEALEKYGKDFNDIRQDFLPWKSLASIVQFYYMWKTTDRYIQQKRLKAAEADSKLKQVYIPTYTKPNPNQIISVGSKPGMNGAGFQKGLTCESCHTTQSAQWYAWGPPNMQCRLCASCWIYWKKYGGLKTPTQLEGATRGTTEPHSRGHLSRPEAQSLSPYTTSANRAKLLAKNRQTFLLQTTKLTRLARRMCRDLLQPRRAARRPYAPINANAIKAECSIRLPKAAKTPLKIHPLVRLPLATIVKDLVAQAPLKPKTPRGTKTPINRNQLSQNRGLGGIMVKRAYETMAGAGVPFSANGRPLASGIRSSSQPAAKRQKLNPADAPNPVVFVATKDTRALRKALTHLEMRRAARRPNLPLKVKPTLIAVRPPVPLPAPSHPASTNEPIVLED
GST-fused middle region (SANT) of MTA2: residues 263-315 of O94776
UniProt O14744: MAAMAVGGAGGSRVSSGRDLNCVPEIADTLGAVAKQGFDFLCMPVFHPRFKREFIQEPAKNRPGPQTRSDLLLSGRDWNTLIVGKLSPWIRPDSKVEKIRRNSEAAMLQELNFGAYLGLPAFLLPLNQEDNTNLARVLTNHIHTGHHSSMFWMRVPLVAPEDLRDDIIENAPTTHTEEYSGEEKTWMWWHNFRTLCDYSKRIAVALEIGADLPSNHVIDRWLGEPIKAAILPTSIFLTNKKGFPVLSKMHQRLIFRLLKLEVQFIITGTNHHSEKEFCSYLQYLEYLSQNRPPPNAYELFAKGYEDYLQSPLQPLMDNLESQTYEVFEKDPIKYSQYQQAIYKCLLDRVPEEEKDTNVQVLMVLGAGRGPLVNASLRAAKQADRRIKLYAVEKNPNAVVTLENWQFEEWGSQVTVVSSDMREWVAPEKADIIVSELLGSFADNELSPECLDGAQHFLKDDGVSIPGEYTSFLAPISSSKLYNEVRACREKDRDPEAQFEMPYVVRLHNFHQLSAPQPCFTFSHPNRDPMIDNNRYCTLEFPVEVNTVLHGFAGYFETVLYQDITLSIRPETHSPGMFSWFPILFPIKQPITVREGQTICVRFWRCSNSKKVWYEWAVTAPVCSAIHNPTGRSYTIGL
UniProt Q9BQA1: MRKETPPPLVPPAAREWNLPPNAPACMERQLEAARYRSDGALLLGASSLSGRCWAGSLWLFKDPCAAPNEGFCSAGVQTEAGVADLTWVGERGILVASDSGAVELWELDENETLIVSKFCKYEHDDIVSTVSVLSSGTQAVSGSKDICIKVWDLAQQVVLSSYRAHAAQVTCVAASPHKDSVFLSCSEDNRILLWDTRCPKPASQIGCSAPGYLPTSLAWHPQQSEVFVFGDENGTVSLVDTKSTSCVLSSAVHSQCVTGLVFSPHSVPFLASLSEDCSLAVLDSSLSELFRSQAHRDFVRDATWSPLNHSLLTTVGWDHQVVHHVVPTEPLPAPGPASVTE

Results are given in words; binding and its absence hold for the method and conditions named. For part of these data: Binding seen in cells or lysates may run through a third protein. Some binding calls cover weakened binding; strength is not graded here. For part of these data: Where a sequence is shown, tags or fusion partners need not be part of it.

For test [1], the target named is Snail, endogenous (human (endogenous in HeLa, Ca Ski, SiHa)) (UniProt O95863). The experiment in a line: co-IP; endogenous proteins; whole-cell lysates from HeLa, Ca Ski and SiHa cells; 500 ug extract with specific antibodies or normal IgG at 4 °C overnight, protein A/G Sepharose; washed with 50 mM Tris-HCl pH 7.4, 150 mM NaCl, 1 mM EDTA, 0.5% NP-40, 0.25% sodium deoxycholate; immunoblotting. For orientation: A western blot detects proteins with antibodies after separation by electrophoresis.

Test [2] concerns the target T1, MTA3 (metastasis tumor antigen family protein 3), endogenous (human (endogenous in HeLa, Ca Ski, SiHa)) (UniProt Q9BTC8).
T1 sequence: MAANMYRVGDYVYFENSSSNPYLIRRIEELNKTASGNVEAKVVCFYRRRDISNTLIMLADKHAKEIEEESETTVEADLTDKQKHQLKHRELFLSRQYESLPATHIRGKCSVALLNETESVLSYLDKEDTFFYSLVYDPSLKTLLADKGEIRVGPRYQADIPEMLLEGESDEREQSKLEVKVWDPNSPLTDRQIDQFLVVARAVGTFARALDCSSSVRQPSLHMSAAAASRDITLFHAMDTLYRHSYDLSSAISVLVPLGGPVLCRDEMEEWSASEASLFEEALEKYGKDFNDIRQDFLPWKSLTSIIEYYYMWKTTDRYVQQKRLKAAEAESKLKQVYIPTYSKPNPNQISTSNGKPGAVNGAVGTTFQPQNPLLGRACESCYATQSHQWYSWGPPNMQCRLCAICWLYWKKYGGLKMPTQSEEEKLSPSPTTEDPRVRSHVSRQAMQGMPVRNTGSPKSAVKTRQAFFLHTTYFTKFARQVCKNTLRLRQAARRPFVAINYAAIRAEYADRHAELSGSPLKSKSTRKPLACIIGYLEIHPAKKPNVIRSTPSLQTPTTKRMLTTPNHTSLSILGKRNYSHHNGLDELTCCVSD
The experiment in a line: co-IP; endogenous proteins; equal amounts of HeLa cellular extracts immunoprecipitated with antibodies against MTA1 or MTA3, immunoblotting.

Test [3] concerns the target MTA1 (metastasis tumor antigen family protein 1), endogenous (human (endogenous in HeLa, Ca Ski, SiHa)) (UniProt Q13330). The test is described as above.
Test [4] concerns the target GST-fused middle region (SANT) of MTA2 (UniProt O94776). The test can be described thus: pull-down; GST fusion protein (~10 ug, E. coli BL21 crude lysate) mixed with 5-8 uL in vitro transcribed/translated product in 0.8% BSA in PBS; glutathione-Sepharose 4B, 4 °C, 2 h; western blotting.
Test [5] concerns the target GST-fused middle region (SANT) of MTA1 (UniProt Q13330). The description is as above.
Another test concerns the target GST-fused PRMT5 (UniProt O14744). The test is described as above.
The next test concerns the target GST-fused MTA2 (UniProt O94776). The test is described as above.
For the next test, the target named is GST-fused MTA1 (UniProt Q13330). Described as above.
Another test addresses T2, GST-fused MTA3 (UniProt Q9BTC8).
T2 sequence: T1 sequence
The description is as above.

In another test the target is GST-fused Snail (UniProt O95863). The test is described as above.
The target in test [6] is T3, GST-fused middle region (SANT) of MTA3 (UniProt Q9BTC8).
T3 sequence: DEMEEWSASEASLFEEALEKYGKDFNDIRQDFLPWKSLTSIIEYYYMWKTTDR
Described as above.

For test [7], the target named is MEP50, endogenous (human (endogenous in HeLa, Ca Ski, SiHa)) (UniProt Q9BQA1). The experiment in a line: co-IP; endogenous proteins; whole-cell lysates from HeLa, Ca Ski and SiHa cells; 500 ug extract with specific antibodies or normal IgG at 4 °C overnight, protein A/G Sepharose; washed with 50 mM Tris-HCl pH 7.4, 150 mM NaCl, 1 mM EDTA, 0.5% NP-40, 0.25% sodium deoxycholate; immunoblotting.

For test [8], the target named is Protein arginine methyltransferase 5 (PRMT5), endogenous (human (endogenous in HeLa, Ca Ski, SiHa)) (UniProt O14744). The test is described as above.
The target is the same in test [9]. The experiment in a line: SEC; co-fractionation by FPLC: HeLa nuclear extract (high-salt extraction; buffer D, 20 mM HEPES pH 8.0, 10% glycerol, 0.1 mM EDTA, 300 mM NaCl, 1 mM DTT) on Superose 6; fractions analysed by western blotting. (In general: Size exclusion chromatography separates by hydrodynamic size, large species first.)

“Protein arginine methyltransferase 5 (PRMT5), endogenous (from UniProt O14744 1-637)”: the binding result in [1], in test [2] and in [3] was “binds” each time.

As for “MEP50, endogenous (from UniProt Q9BQA1 1-342)”, in [1], the binding result is recorded as “binds”.

In the case of “in vitro transcribed/translated Snail (from UniProt O95863 1-264)”, the binding result in test [4] was “binds”; in test [5], “binds”; with GST-fused PRMT5, “binds”; with GST-fused MTA2, “binds”; in the test with GST-fused MTA1, “binds”; in the test with GST-fused MTA3 it was “no binding”.

For “in vitro transcribed/translated PRMT5 (from UniProt O14744 1-637)”, the binding result (in test [4]; in test [5]; with GST-fused Snail; with GST-fused MTA2; in [6]; with GST-fused MTA1) was “binds” in each case. Further, the binding result in the test with GST-fused MTA3 is reported as “binds”.

With “Snail, endogenous (from UniProt O95863 1-264)”, the binding entry in test [7] is “binds”; in test [8], “binds”; in test [2] it was “no binding”; in test [9], “binds”.
